Measurements: publication PMC4775073
Where a chain is given by its changes, count along the chain named. These are yes or no findings as the source states them, for the method shown. In cells and extracts the contact can be indirect. Some entries that bind do so weakly or less than the wild type. For some assays here: Sequences can lack the tags named with a protein. Values belong to the substance of their own block, whether it stands above or below them.

Chains of the proteins cited; added tags and fusions are not shown. Lines headed by an entry give the natural chain unless they say otherwise; changes in a name come on top. A line that says so, or that is headed by a name, gives the form on record, which may keep a tag or linker.
UniProt Q07157: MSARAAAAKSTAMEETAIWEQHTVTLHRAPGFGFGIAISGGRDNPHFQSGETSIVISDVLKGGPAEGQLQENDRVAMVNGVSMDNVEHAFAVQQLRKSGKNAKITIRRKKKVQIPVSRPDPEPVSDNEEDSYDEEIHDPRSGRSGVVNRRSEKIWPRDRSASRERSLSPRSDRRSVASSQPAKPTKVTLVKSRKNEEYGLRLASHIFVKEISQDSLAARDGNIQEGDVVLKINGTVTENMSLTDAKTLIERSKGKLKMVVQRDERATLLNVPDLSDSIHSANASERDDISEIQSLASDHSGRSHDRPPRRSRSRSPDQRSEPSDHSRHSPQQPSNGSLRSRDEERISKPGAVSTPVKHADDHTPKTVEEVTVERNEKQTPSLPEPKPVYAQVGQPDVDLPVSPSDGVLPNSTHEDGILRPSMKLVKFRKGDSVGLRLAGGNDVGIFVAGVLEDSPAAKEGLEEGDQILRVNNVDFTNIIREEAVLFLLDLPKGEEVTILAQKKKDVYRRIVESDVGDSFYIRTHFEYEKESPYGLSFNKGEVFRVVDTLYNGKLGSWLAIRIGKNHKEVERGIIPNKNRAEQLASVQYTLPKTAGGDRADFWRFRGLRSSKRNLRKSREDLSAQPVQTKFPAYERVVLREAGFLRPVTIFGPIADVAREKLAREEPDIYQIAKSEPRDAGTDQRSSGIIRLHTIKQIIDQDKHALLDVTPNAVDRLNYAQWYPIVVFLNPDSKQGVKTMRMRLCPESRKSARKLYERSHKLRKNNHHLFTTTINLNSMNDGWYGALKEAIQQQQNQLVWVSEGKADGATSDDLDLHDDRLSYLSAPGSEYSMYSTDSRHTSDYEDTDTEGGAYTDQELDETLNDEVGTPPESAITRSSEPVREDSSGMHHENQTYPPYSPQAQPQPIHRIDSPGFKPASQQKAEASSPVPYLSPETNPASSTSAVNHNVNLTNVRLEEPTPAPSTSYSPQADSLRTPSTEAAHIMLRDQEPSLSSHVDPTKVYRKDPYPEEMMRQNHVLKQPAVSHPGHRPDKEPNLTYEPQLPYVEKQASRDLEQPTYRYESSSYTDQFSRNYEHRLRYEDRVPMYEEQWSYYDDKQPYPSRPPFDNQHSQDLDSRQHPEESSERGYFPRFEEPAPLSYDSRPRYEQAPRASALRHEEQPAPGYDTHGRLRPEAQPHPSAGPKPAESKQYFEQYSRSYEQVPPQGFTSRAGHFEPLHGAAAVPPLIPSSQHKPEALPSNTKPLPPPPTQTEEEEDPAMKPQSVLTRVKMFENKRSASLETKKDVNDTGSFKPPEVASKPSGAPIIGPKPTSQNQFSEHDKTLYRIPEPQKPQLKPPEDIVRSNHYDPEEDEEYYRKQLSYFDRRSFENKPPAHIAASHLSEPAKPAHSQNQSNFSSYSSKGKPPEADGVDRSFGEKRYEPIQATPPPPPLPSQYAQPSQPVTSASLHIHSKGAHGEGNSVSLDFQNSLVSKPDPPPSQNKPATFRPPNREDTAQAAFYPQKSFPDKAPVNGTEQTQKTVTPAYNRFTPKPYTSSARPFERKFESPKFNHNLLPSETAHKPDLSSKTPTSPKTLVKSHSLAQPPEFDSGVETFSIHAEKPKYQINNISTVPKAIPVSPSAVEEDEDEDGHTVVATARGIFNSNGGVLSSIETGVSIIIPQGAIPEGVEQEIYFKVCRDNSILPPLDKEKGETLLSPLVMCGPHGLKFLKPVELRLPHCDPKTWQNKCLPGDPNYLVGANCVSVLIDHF
ZO1-∆PDZ3-EYFP (Q07157, form named): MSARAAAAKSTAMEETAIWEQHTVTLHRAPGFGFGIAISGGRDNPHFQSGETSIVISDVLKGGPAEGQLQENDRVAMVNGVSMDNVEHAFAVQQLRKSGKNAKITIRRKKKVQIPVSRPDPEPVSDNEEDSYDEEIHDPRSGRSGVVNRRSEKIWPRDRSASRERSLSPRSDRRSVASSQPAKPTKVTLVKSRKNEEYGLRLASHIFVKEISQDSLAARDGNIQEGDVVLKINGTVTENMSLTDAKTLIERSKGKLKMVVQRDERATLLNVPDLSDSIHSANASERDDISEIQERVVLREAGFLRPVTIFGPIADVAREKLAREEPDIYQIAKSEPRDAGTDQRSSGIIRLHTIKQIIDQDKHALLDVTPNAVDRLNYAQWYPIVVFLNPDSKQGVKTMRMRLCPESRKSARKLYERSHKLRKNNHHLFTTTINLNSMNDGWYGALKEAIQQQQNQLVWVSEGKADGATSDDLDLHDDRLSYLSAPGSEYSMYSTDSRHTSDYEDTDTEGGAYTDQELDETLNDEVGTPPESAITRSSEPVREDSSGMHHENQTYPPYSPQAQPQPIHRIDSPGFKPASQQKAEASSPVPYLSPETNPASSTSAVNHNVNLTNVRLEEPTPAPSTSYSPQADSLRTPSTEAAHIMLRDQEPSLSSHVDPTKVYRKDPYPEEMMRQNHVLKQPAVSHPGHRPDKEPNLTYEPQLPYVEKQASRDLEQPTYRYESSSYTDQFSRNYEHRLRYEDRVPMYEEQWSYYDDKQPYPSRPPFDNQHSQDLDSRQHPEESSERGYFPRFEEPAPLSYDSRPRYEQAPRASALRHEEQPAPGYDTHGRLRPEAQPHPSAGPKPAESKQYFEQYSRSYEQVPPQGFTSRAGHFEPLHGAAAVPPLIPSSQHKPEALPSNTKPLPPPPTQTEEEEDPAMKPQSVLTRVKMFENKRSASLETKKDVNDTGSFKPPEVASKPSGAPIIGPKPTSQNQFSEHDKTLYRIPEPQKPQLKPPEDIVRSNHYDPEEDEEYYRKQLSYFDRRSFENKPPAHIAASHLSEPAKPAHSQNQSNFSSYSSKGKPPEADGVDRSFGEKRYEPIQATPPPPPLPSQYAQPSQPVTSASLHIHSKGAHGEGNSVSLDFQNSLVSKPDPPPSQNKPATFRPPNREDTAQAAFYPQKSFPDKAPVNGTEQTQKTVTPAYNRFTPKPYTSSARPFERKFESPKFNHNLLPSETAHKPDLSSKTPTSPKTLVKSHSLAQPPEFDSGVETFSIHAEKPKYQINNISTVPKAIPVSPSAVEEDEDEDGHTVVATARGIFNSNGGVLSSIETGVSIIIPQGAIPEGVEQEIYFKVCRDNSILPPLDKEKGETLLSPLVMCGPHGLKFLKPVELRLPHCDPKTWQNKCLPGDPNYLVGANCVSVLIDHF

Columns and labels:
[1] = molecular target: T1, CTRwt-ECFP (human) (UniProt P30988); experiment: FRET or BRET; acceptor photobleaching FRET microscopy in live PC-31 cells co-transfected with CTR-ECFP and ZO-1-EYFP constructs, room temperature, with or without 50 nM CT
T1 sequence: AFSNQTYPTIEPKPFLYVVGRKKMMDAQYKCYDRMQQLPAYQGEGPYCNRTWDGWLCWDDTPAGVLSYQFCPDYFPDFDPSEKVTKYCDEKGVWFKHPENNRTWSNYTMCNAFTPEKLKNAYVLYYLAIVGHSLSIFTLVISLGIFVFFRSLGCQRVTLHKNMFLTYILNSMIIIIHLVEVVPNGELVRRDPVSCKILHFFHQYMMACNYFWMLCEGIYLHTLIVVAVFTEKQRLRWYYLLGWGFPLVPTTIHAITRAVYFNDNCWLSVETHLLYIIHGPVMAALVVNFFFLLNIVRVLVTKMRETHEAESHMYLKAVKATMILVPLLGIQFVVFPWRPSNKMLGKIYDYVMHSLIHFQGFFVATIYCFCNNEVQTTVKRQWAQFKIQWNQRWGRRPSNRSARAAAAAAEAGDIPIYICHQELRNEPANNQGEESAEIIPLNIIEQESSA

[2] = molecular target: T2, CTR∆ESS-ECFP (human) (UniProt P30988); experiment: as above
T2 sequence: T1 sequence with E447A, S448A, S449A

[3] = molecular target: T3, Calcitonin receptor (CTR), endogenous (human (endogenous in LNCaP cells and human prostate tumors)) (UniProt P30988); experiment: co-IP; snap-frozen human prostate tumor specimens homogenized (10 mg); CTR immunoprecipitated from the clarified supernatant with rabbit anti-CTR serum; ZO-1 immunoblot
T3 sequence: T1 sequence

[4] = molecular target: T3, Calcitonin receptor (CTR), endogenous (human (endogenous in LNCaP cells and human prostate tumors)); experiment: proximity ligation; in situ PLA (Duolink) on fixed PC cells (PC-3CTRwt, PC-3CTR∆ESS, LNCaP) with anti-ZO-1 and anti-CTR sera; with/without 50 nM CT for 30 seconds; dots per cell counted
[5] = molecular target: T3, Calcitonin receptor (CTR), endogenous (human (endogenous in LNCaP cells and human prostate tumors)); experiment: proximity ligation; in situ PLA (Duolink) on fixed LNCaP cells not stimulated with CT (LNCaP express CTR but not CT)

binding [1]: no binding
Substance: ZO1-∆PDZ3-EYFP (from UniProt Q07157 1-1748)

binding [2]: no binding
Substance: ZO-1wt-EYFP (from UniProt Q07157 1-1748)

binding [3]: binds
binding [4]: binds
Substance: Zonula Occludens-1 (ZO-1), endogenous (from UniProt Q07157 1-1748)
binding [5]: no binding (condition: cells not stimulated with CT)
